This is one part of the list.
Columns and labels:
HSkMC = human skeletal muscle cells; test: cytotoxicity call (relative viability < 0.9); settings: 10 µM
HepG2 = test: cytotoxicity call (relative viability < 0.9); settings: 10 µM
S. aureus RN4220 = test: growth inhibition call (relative growth <= 0.2); settings: 50 µM

Row | Compound | cytotoxicity call (HSkMC) | cytotoxicity call (HepG2) | growth inhibition call (S. aureus RN4220)
1 | C[C@@H]1CN([C@H](C)CO)C(=O)c2cc(NC(=O)CCN3CCOCC3)ccc2O[C@@H]1CN(C)S(=O)(=O)c1ccc(F)cc1 | inactive | inactive | inactive
2 | C[C@@H]1CCCCO[C@@H](CN(C)C(=O)Nc2ccc3c(c2)OCO3)[C@@H](C)CN([C@H](C)CO)C(=O)c2cc(NC(=O)c3ccccc3)ccc2O1 | inactive | inactive | inactive
3 | C[C@H]1CN([C@@H](C)CO)C(=O)c2cc(NC(=O)Cc3cn(C)c4ccccc34)ccc2O[C@@H]1CN(C)Cc1ccc(Oc2ccccc2)cc1 | active | active | inactive
4 | C[C@@H]1CCCCO[C@H](CN(C)CC2CCCCC2)[C@@H](C)CN([C@H](C)CO)C(=O)c2cc(NC(=O)Nc3ccc(C(F)(F)F)cc3)ccc2O1 | active | active | inactive
5 | CC(C)NC(=O)Nc1cccc2c1O[C@H](CN(C)Cc1ccc3c(c1)OCO3)[C@@H](C)CN([C@H](C)CO)C2=O | inactive | inactive | inactive
6 | Cc1noc(C)c1NC(=O)N(C)C[C@H]1OCCCC[C@H](C)Oc2ccc(NC(=O)C3CCCCC3)cc2C(=O)N([C@@H](C)CO)C[C@@H]1C | inactive | inactive | inactive
7 | COc1ccc(S(=O)(=O)N(C)C[C@H]2OCc3cnnn3CCCC(=O)N([C@H](C)CO)C[C@@H]2C)cc1 | inactive | inactive | inactive
8 | COc1ccc(cc1)CN1CC[C@]2(CC1)CN([C@@H](CO)c1[nH]c3cc(ccc3c12)OC)C(=O)CN(C)C | inactive | inactive | inactive
9 | O=C(C[C@H]1CC[C@H]2[C@@H](COC[C@H](O)CN2S(=O)(=O)c2ccc(F)cc2)O1)N[C@H]1CCN(Cc2ccccc2)C1 | inactive | inactive | inactive
10 | C[C@H](CO)N1C[C@H](C)[C@H](CN(C)S(C)(=O)=O)Oc2c(NC(=O)Nc3ccc(C(F)(F)F)cc3)cccc2C1=O | inactive | inactive | inactive
11 | C[C@@H]1CN([C@H](C)CO)C(=O)c2cccc(NC(=O)c3cnccn3)c2O[C@H]1CN(C)S(=O)(=O)c1cn(C)cn1 | inactive | inactive | inactive
12 | C[C@H](CO)N1C[C@H](C)[C@H](CN(C)Cc2ccccc2C(F)(F)F)OCc2ccccc2-c2ccccc2C1=O | active | inactive | inactive
13 | COc1ccc([C@H]([C@H](Cc2ccccc2)OC(C)=O)N(CC#C[C@@H](O[Si](c2ccccc2)(c2ccccc2)C(C)(C)C)c2ccccc2)[C@@H](Cc2ccccc2)C(OC)OC)cc1 | inactive | inactive | inactive
14 | Cc1cc(=O)oc2cc(O)c(O)cc12 | inactive | inactive | inactive
15 | COc1ccc(NC(=O)N(C)C[C@H]2OCc3ccccc3-c3c(n(C)c4ccccc34)C(=O)N([C@@H](C)CO)C[C@@H]2C)cc1 | inactive | inactive | inactive
16 | C[C@@H]1CCCCO[C@H](CN(C)C(=O)Nc2ccccc2)[C@@H](C)CN([C@@H](C)CO)C(=O)c2cc(NS(=O)(=O)c3ccc(F)cc3)ccc2O1 | inactive | inactive | inactive
17 | COc1cccc(C#Cc2cnc3c(c2)C(=O)N([C@H](C)CO)C[C@H](C)[C@H](CN(C)C(=O)C2CCOCC2)O3)c1 | inactive | inactive | inactive
18 | COc1ccc(S(=O)(=O)Nc2cccc3c2O[C@H](CN(C)CC2CC2)[C@H](C)CN([C@H](C)CO)C3=O)cc1 | inactive | inactive | inactive
19 | C[C@H]1CN([C@@H](C)CO)C(=O)c2cccc(NC(=O)C3CCCCC3)c2O[C@H]1CN(C)Cc1ccc(C(=O)Nc2ccccc2N)cc1 | inactive | active | inactive
20 | C[C@H]1CCCCO[C@@H](CN(C)Cc2ccncc2)[C@@H](C)CN([C@@H](C)CO)C(=O)c2cc(NC(=O)c3ccccc3)ccc2O1 | inactive | inactive | inactive
21 | O=C(C[C@@H]1CC[C@@H]2[C@H](COC[C@H](O)CN2S(=O)(=O)c2ccccc2)O1)NCc1ccc(-c2ccccc2)cc1 | inactive | inactive | inactive
22 | C[C@H]1CN([C@@H](C)CO)C(=O)c2c(c3ccccc3n2C)-c2ccccc2CO[C@H]1CN(C)Cc1ccccc1 | inactive | inactive | inactive
23 | COc1cccc(OC)c1C(=O)NCCCO | inactive | inactive | inactive
24 | C[C@H]1CN([C@@H](C)CO)C(=O)c2cc(NC(=O)Nc3cccc4ccccc34)ccc2O[C@H]1CN(C)C(=O)NC1CCCCC1 | inactive | inactive | inactive
25 | C[C@H]1CN([C@@H](C)CO)C(=O)c2cccc(NC(=O)c3ccc(-c4nccs4)cc3)c2O[C@@H]1CN(C)C(=O)NC1CCCCC1 | inactive | inactive | inactive
26 | Nn1c(Nc2ccc(Cl)cc2)nncc1=O | inactive | inactive | inactive
27 | CS(=O)(=O)N1[C@@H]2Cn3c(ccc(C4=CCCCC4)c3=O)[C@H]1[C@@H](C(=O)N1CCOCC1)[C@@H]2CO | inactive | inactive | inactive

Row | Compound | cytotoxicity call (HSkMC) | cytotoxicity call (HepG2) | growth inhibition call (S. aureus RN4220)
28 | COc1ccc(CN(C)C[C@H]2Oc3ccc(NC(=O)CCCN(C)C)cc3C(=O)N([C@H](C)CO)C[C@H]2C)cc1 | inactive | inactive | inactive
29 | C[C@H]1CCCCO[C@H](CN(C)Cc2ccc3c(c2)OCO3)[C@@H](C)CN([C@@H](C)CO)C(=O)c2cc(NC(=O)c3ccccc3)ccc2O1 | inactive | inactive | inactive
30 | C[C@@H]1CCCCO[C@@H](CN(C)S(=O)(=O)c2cccs2)[C@@H](C)CN([C@H](C)CO)C(=O)c2cc(NC(=O)Nc3ccc4c(c3)OCO4)ccc2O1 | inactive | inactive | inactive
31 | Cn1cnc(S(=O)(=O)N[C@@H]2CC[C@@H](CC(=O)NCC3CC3)O[C@H]2CO)c1 | inactive | inactive | inactive
32 | Cc1ccc(S(=O)(=O)Nc2ccc3c(c2)C(=O)N([C@@H](C)CO)C[C@H](C)[C@@H](CN(C)C(=O)CCC(F)(F)F)OCCCC[C@@H](C)O3)cc1 | inactive | inactive | inactive
33 | O=C(C[C@@H]1CC[C@H](NS(=O)(=O)c2ccc(F)cc2)[C@@H](CO)O1)N1CCC(Cc2ccccc2)CC1 | inactive | inactive | inactive
34 | Cc1ccc(S(=O)(=O)N(C)C[C@@H]2Oc3ccc(NC(=O)c4ccncc4)cc3CC(=O)N([C@@H](C)CO)C[C@H]2C)cc1 | inactive | inactive | inactive
35 | O=C1NC[C@@H](c2ccccc2)OC(=O)[C@H](Cc2ccc(F)cc2)CCC=CC[C@@H]1CC(=O)N(CCO)Cc1ccccc1 | inactive | inactive | inactive
36 | O=c1nc[nH]c2c1ncn2[C@@H]1O[C@H](CO)[C@@H](O)[C@H]1O | inactive | inactive | inactive
37 | C[C@H]1CN([C@@H](C)CO)C(=O)c2cc(C#CC3CCCC3)cnc2O[C@@H]1CN(C)S(=O)(=O)c1cccc(F)c1 | inactive | active | inactive
38 | COCC(=O)Nc1c(I)c(C(=O)NC[C@@H](O)CO)c(I)c(C(=O)N(C)C[C@@H](O)CO)c1I | inactive | inactive | inactive
39 | CC[C@@](N)(C(=O)O)c1ccccc1 | inactive | inactive | inactive
40 | C[C@H](CO)N1C[C@H](C)[C@@H](CN(C)Cc2ccncc2)Oc2ccc(NS(=O)(=O)c3ccccc3)cc2C1=O | inactive | inactive | inactive
41 | Cc1noc(C)c1NC(=O)N(C)C[C@@H]1Oc2ncc(Br)cc2C(=O)N([C@H](C)CO)C[C@@H]1C | inactive | inactive | inactive
42 | C[C@H](CO)N1C[C@H](C)[C@H](CN(C)S(C)(=O)=O)Oc2ccc(NC(=O)NC3CCCCC3)cc2C1=O | inactive | inactive | inactive
43 | Cc1noc(C)c1NC(=O)Nc1ccc2c(c1)C(=O)N([C@@H](C)CO)C[C@H](C)[C@H](CN(C)C(=O)NC1CCCCC1)OCCCC[C@H](C)O2 | inactive | inactive | inactive
44 | C[C@@H]1CN([C@H](C)CO)C(=O)c2cc(NC(=O)Nc3ccc(F)cc3)ccc2O[C@@H]1CN(C)Cc1ccc(-c2ccccc2)cc1 | active | active | inactive
45 | C[C@H](CO)N1C[C@H](C)[C@@H](CN(C)CC2CC2)OCCCC[C@H](C)Oc2ccc(NS(C)(=O)=O)cc2C1=O | inactive | inactive | inactive
46 | CN1CCN(C(=O)C[C@@H]2CC[C@@H]3[C@H](COC[C@H](O)CN3C(=O)C3CCOCC3)O2)CC1 | inactive | inactive | inactive
47 | Cc1ccc(S(=O)(=O)Nc2ccc3c(c2)C(=O)N([C@H](C)CO)C[C@@H](C)[C@@H](CN(C)Cc2ccc(C(F)(F)F)cc2)OCCCC[C@H](C)O3)cc1 | inactive | active | inactive
48 | COCCOC(=O)N1C(=O)[C@@]2(c3cc(C#Cc4ccc(OC)cc4)ccc31)[C@H](C(=O)N1CCc3cc(OC)c(OC)cc3C1)[C@H]1C(=O)O[C@H](c3ccccc3)[C@H](c3ccccc3)N1[C@@H]2c1ccccc1OCCO | inactive | inactive | inactive
49 | C[N+]1(C)C[C@H](O)[C@H](C(=O)O)C1 | inactive | active | inactive
50 | C[C@H](CO)N1C[C@H](C)[C@H](CN(C)Cc2ccc(-c3ccccc3)cc2)Oc2ccc(NS(=O)(=O)c3cccs3)cc2C1=O | inactive | inactive | inactive
51 | Cc1ccc(S(=O)(=O)N2C[C@@H](O)COC[C@@H]3O[C@H](CC(=O)N[C@H]4CCN(Cc5ccccc5)C4)CC[C@H]32)cc1 | inactive | inactive | inactive
52 | C[C@@H]1CN([C@H](C)CO)S(=O)(=O)c2ccc(C#CCN(C)C)cc2O[C@@H]1CN(C)C(=O)CN(C)C | inactive | inactive | inactive
53 | O=C(O)CCNC(=O)c1cncc(O)c1 | inactive | inactive | inactive
54 | C[C@H](CO)N1C[C@H](C)[C@@H](CN(C)S(=O)(=O)c2cn(C)cn2)Oc2c(NS(=O)(=O)c3ccc(Cl)cc3)cccc2C1=O | inactive | inactive | inactive
